In all, about 2,300 sequences were measured (“median log2 fold change of GCK-ALFA target abundance (FLAG IP / Myc IP barcode read proportion)”: median about 0.095, lowest 2% from about -0.47 on). This is one part of the list.
B1: LC3A_147_476 (protein)
chain: YKVEVDIDILTKDAEEEIKEELKKIVEELKEKGYKVELEIEEEKLEDGSTYIHAKITIEAETLEEAKEAANLVIDKLDEMEEKLKDKILGSLISVEITEK
B2: LC3A_127_175 (protein)
chain: ELEELLKKLLEVAEELSEELSKPDADLEEIERLVKEAIELAKKALELDPRAEPILEAAEEIKKQLEQYKKAPEEKKEELREHMEMLAESLIIEIESLLLR
B3: LC3A_28_837 (protein)
chain: SHAEEEIERAKAALRAAREAGEDVLVEIRIRASMTVEEAQAIMDALEEEVAKLDPSVKVDILVLAEEPLSPEVLQTIADRADAIEAAHPNVTVVIALPEE
B4: LC3A_147_416 (protein)
chain: MTVEVDIDILGKLSEEEVEELVERLKAVAEAHGGKVEAEVEIEELPGGERFVSIKLTVTGIAKEKAQELSNDLIDTVDEFLEENKDKVKGALISVETIEE
B5: LC3A_3_1374 (protein)
chain: TEEKIAELLAFLAAQGKSAETLAAVEAAARALAAKGYEKALETFIELMKELADVPDELLLWFAEEVLRAVTEEDLTEEELIEFIKNEATVVRNEAEIEEL
B6: LC3A_28_883 (protein)
chain: SEALESARAALAEVEAAVAAGNTEPLVLEVVAPSTEEDAEKFLELLEELAAAASKLPGVTIIIDIDESVSEELRNRIIDKADELEEKYPNVTIIIALPES
B7: LC3A_28_1017 (protein)
chain: SALEKQIAEIRKEAEAAIAAGEDVVLTLKITGDMSLEEVKEAMEKVSEIVLEAAKKGKVDLVIDLDADVSQEKLDVVLEKAEEIEEKAPNVNVIIALEER
B8: LC3A_3_1874 (protein)
chain: MEEEIEKTLKELKEAGASEETIEKFKEVAEKLKERGYEEALKTLIEKVRELIPTSDEILLDFLEEVLEVLETEDLSEEELIERINEIAELALNEAEIEEL
B9: LC3A_132_329 (protein)
chain: EEEKYAELTAAIDAKLDAALANVTDLAKVEALAEETRALLERAEKEISPEQAAELYDRAADLYDKVADAAEAAGQEDVALLASGMAVEAAARSIRAEEKI
B10: LC3A_3_1887 (protein)
chain: MDEKIEETLKRLKEAGASEETLEAFKRVVEKLKARGWDEALNTLIEKVDELLDAPDEVRLAFLQDVLALLDTPGVSEEELIAGINELATLAKNEAEIIEL
B11: LC3A_3_1431 (protein)
chain: MEELLERARRVLEEAGFDEETIEAVLELLELALKAGEVEEAERLIEVLEESKNVDSEEVLEAAREALRRIREEGVPIKEALERFIEELRVLRLEEEIEEL
B12: LC3A_127_208 (protein)
chain: KERELLLEAERLAEELLEALEEIPEKGEEARKRAIELAEELIKLLEKIPSLADAKKDAEQLLKQLKELEKLDEAEREEKVEHLEMLADGILIEIESELLK
B13: LC3A_28_1304 (protein)
chain: SSLEKKFEEAIKKIEEAAKKGEPVVVTIDITAEEAEKELEKILELLEKLGEVASKAPGAVIIIDLDSKVKPENRKKIMDKAEEIEEKYPNVTVIIAIEDD
B14: LC3A_59_2021 (protein)
chain: SPELEEARERLLAARDDKEKLAELITEWLIRHRDDPELLEELKELIVEVLVESGILSRELAEEMLEEMIEIIEEEEDEEEARKKMKEVFRTALNEEEIIE
B15: LC3A_62_2050 (protein)
chain: MYRAEIDVDLLFDTEEKAKKAAEEIKEAAEEIKEKYPEVEVEVEIEIDGTFLDVKIILKAPNKELLEKAVNDLIDKIEEIAEKYGAKAILISVDIEEVEE
B16: LC3A_28_1023 (protein)
chain: SAAEEKVKAAREEAKEQKAKGEPIFIEISVDETTTLEDAKTIVKGIEEIAEEFKDEKGVSIIIDVDAGVSQEVIDTLADGAEKIEKKYPNVSVIIALEER
B17: LC3A_28_758 (protein)
chain: MDVAEIVAAAIAEAKAAAAAGEEAVIRIRVPAGATQEDIDKVIAGLEEIAEIRKDMKSTSIVIDIEAGVSQENIDKLIDAGEAIEKKYPNITVIFALDED
B18: LC3A_59_2011 (protein)
chain: MEEVKKYVDEILTKYDDPEAFYKAVKEAYEKLKEKYSDEELLELVTKVAEERIKKGEDPKKMQAIVDSFKAVIEIKDEEKQKEEIKLILLESEIEEIDEE
B19: LC3A_28_940 (protein)
chain: ATTAENLAAALAEAEAAAAAGEPVVVTLTLRGTDTQEDVDRLLATLRRIAELLKDVPGAAIVVDVEAGVPQEHIDRVADEGDAIEERYPGITVIIALDED
B20: LC3A_28_1166 (protein)
chain: SPLEESIKEALAEAKKAAEKKEPTVITIHVPGGATEEEVERVIEAIEEIAELLKDIPGSAIIIDVDSGVPQEHLDRIIDKAEEVEKKYPNISVIIALDEE
B21: LC3A_28_1101 (protein)
chain: SKLEENLEKAIKEAKEAAAKGEEALIEINVGDDATEEDIELLIKTIEEIAEINKDLPSLTIVINLDGEKAREKADIISKEADKLEKKYPNLTIIIALPED
B22: LC3A_28_1266 (protein)
chain: SAIDEALAAFKAAAEAAKAAGKPSLLELEVPGDTTAEDVDRINATMKEEAEKLKDIKGTAILISIDSDLAQENRDKLIDTAEEIEKKNPNITVIIAIEDE
B23: LC3A_free_39_2273 (protein)
chain: SMEELEKLKKEALEIAKKEGEETLKAVEELFELLKDNPEIQKKVAEGLLEVHKAGGDLLEAAKDLVELVKKLKEEGKSPEELKKELEEELKVHLNLIPLD
B24: LC3A_3_1421 (protein)
chain: MEARVAAALAALAAAGWSQETLDALRELVAELLARGAEAEAERALELVLANKDLSSEDLLEVLEEALAALREPGVSPEEVVARLEELLRIARAEQEIEEL
B25: LC3A_3_1659 (protein)
chain: MEALIAETLAYLAAQGKSPEVLAATRAALTALVERGYEEAARVFAELLRELAGLSDEVLLDLAREVLELVETSDISEEEMTERIRELARVARLEEEIEEL
B26: LC3A_3_1371 (protein)
chain: MEEEKEETLEFLREEGKSEETIEAVRRTLEALIEKGYEEAAKTFMELLKEMKDLSDEILLAFAEDVLRAVTEEDLSEEELIEFIKNEAKVARNDEEIIEL
B27: LC3A_28_757 (protein)
chain: MDVKEEVEKAIEKAKEAKAKGEEAVIEIKVPAGATQEDVDIVIEGLEEIAEINKDMKRTTIVIDVDAGVSQEHIDKLIDKGEEIEKKYPNITVIFALDED
B28: LC3A_3_1489 (protein)
chain: KEELLEEMEKVLEELGVSEETRERILEDVKKLLELGYEETVKTLIELFKEGKDMSEKQILAVTSITRDKAEEEKLSEEELVEEAKRIYENVKEIEELEEE
B29: LC3A_132_251 (protein)
chain: SEELLEEALEELKKLLEEVVKALQAGEDYLPLIKKLDELAEEHAEKLSLEETEELVEESKKYADELFAERLDPNDEEAIRARDIIDMLLDGVLIEKELRS

target: MAP1LC3A, Q9H492; experiment: median log2 fold change of GCK-ALFA target abundance (FLAG IP / Myc IP barcode read proportion) (log2 ratio); each designed protein is fused to an ALFA-tag nanobody in HEK293 cells to bring the named protein to FLAG-tagged glucokinase (GCK); Myc marks an untargeted standard; higher = target protein stabilised (more abundant); conditions: target protein: 3xFLAG-MCP-GCK-ALFA reporter; HEK293 landing pad (RPLP)
Outline: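 The readout is target abundance, the per-binder median log2 ratio of FLAG to Myc barcode read proportions. It came from HEK293 landing-pad cells carrying a recombined ALFA-nanobody-fused binder library, induced with 2 μg mL^−1 doxycycline and transfected with a plasmid for a FLAG-tagged target and a Myc-tagged standard. After 48 h, lysates were immunoprecipitated with anti-FLAG and anti-Myc, and circular RNA barcodes were reverse transcribed, amplified and sequenced. Each barcode needed a proportion of at least 10^−7 in both replicates and each binder at least 3 barcodes per replicate, a pseudocount of 10^−6 was added, and the replicates were pooled.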

Binder | median log2 fold change
B1 | -0.391
B2 | 0.0944
B3 | 0.0521
B4 | -0.319
B5 | 0.11
B6 | -0.252
B7 | -0.172
B8 | -0.0677
B9 | 0.21
B10 | 0.21
B11 | 0.119
B12 | 0.0328
B13 | 0.299
B14 | 0.191
B15 | 0.0577
B16 | -0.231
B17 | 0.124
B18 | 0.268
B19 | 0.0182
B20 | -0.31
B21 | 0.374
B22 | -0.0182
B23 | 0.213
B24 | 0.254
B25 | 0.247
B26 | 0.373
B27 | -0.293
B28 | 0.312
B29 | 0.0467

— the supplement of paper PMC12632987
